Out of some 310,000 compounds screened, about 2,200 (0.71%) showed an effect of 50% or more. The effect is printed as a negative number. The list shows a part of the results.

For this test, the target named is human ether-à-go-go-related gene (hERG) potassium channel (human, UniProt Q12809). As to the kind of experiment: primary screen, population patch clamp on CHO cells stably expressing hERG.
human ether-à-go-go-related gene (hERG) potassium channel, sequence (Q12809 whole entry, looked up): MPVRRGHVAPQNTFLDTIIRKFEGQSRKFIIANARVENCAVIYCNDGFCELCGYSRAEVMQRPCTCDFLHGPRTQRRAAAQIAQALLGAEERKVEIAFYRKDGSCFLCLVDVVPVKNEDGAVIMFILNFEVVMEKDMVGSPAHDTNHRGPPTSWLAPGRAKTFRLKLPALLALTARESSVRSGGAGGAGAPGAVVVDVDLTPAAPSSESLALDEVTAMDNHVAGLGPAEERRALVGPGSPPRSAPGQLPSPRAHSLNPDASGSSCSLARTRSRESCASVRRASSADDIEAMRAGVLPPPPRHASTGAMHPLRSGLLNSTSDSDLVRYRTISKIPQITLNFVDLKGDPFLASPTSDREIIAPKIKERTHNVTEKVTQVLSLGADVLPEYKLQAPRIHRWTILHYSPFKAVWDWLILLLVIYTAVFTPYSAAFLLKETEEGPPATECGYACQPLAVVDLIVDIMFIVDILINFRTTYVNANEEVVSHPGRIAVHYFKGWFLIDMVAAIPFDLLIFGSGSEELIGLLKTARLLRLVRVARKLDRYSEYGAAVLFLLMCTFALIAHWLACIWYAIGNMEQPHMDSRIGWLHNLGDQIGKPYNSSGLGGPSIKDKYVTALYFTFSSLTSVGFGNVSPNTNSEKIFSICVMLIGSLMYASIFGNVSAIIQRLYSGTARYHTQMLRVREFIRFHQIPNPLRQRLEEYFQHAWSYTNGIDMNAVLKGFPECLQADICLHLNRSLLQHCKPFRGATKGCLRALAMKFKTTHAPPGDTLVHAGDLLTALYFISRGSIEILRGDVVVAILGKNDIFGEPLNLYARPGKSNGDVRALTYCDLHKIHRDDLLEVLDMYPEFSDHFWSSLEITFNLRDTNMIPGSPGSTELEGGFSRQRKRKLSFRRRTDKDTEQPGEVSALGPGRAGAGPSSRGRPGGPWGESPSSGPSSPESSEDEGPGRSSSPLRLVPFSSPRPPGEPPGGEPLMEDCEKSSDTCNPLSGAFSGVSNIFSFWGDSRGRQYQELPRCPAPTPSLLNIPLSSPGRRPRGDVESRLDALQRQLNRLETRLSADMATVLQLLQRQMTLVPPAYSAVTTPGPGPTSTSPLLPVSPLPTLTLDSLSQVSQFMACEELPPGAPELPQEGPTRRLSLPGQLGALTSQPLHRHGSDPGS
Regarding `C/C(=N\NC(=O)c1ccc(NS(=O)(=O)c2cccs2)cc1)c1ccccc1`, the “hERG current change (%, negative = inhibition) at 1uM” value is on record as 12.5%.
Consider `Cc1ccc(-c2cc(C(=O)OCC(=O)NC3CC3)c3ccccc3n2)cc1`, for which the “hERG current change (%, negative = inhibition) at 1uM” value worked out at 13.3%.
The result for `Cc1[nH]c2ccccc2c1CCN(Cc1cccnc1)C(=S)Nc1cccc(F)c1` reads 15.7%.
With `O=C(N/C(=C/c1ccc(Br)cc1)C(=O)N1CCCC1)c1cccs1` the figure was 9.87%; with `CCCOc1ccc(C(C)=O)cc1CC(C(=O)OCC)C(=O)OCC`, 13%.
For `O=C(O)C(=O)O.c1ccc(OCCOCCN2CCN(C(c3ccccc3)c3ccccc3)CC2)cc1`, the “hERG current change (%, negative = inhibition) at 1uM” value is reported as -10.2%.
With `COc1c(C(O)CC(C)C)ccc2c1C(=O)OCc1cc(C)cc(O)c1O2` (centres unmarked) the figure was 5.24%.
With `COc1ccccc1OCC(=O)Nc1ccc(CSc2ccccc2)cc1C` the figure was 9.85%; with `CCOc1ccc2nc(SCC(=O)Nc3cc4c(cc3C(C)=O)OCO4)[nH]c2c1`, 5.19%; with `CSCC[C@H](NC(=O)Nc1ccc(C)cc1C)C(=O)O`, -7.16%.
For the molecule `Cn1cccc1C(=O)N1CCN(c2cccc(C(F)(F)F)c2)CC1`, the “hERG current change (%, negative = inhibition) at 1uM” value stood at 11.9%.
For `Cc1cc(Br)c(NC(=O)c2ccccc2[N+](=O)[O-])cc1C`, the “hERG current change (%, negative = inhibition) at 1uM” value came out at 4.52%.
The result for `Nc1nc(SCC(=O)NCc2ccco2)[nH]c(=O)c1-c1ccccc1` reads 8.98%; that for `CC1=CC(C)(C)Nc2ccc(OC(=O)c3ccco3)cc21`, 5.24%.
For the molecule `CC(C)CSc1oc(-c2ccco2)nc1S(=O)(=O)c1ccccc1`, the “hERG current change (%, negative = inhibition) at 1uM” value is recorded as -1.1%.
For the molecule `Cc1ccc2c(c1)N(CC(=O)N1CCN(C3CCCCC3)CC1)C(=O)CO2`, the “hERG current change (%, negative = inhibition) at 1uM” value is -1.72%.
For `COc1ccc(CNc2ccc3c(c2)ncn3-c2ccccc2OC)cc1`, the “hERG current change (%, negative = inhibition) at 1uM” value is reported as -7.92%.
As for `O=C(CNC(=O)c1ccc(Br)cc1)c1ccccc1`, the “hERG current change (%, negative = inhibition) at 1uM” value is 17.5%.
`O=c1[nH]c(CSc2ccccn2)nc2ccccc12`: the “hERG current change (%, negative = inhibition) at 1uM” value is reported as 6.7%.
For the molecule `C=C(Br)CN1CCN(CC(=C)Br)CC1`, the “hERG current change (%, negative = inhibition) at 1uM” value is 8.31%.
For the molecule `CCN1C(=O)N[C@@H](c2ccccc2)[C@H](C(=O)OC)[C@H]1C`, the “hERG current change (%, negative = inhibition) at 1uM” value is 8.39%.
In the case of `O=C(Nc1ccc(N2CCN(C(=O)c3ccco3)CC2)cc1)c1ccccc1Br`, the “hERG current change (%, negative = inhibition) at 1uM” value was determined as 12.7%.
`CC(Sc1nc2c(c(=O)[nH]1)CCCC2)C(=O)Nc1ccccc1C#N` (centres unmarked): the “hERG current change (%, negative = inhibition) at 1uM” value is listed as 19.4%.
As to `COc1ccc(C(=O)OCC(=O)N2CCOCC2)cc1S(=O)(=O)N1CCOCC1`, the “hERG current change (%, negative = inhibition) at 1uM” value is 9.24%.
Turning to `CCOC(=O)c1c(C)[nH]c(O)c1C=Nc1ccccc1`, the “hERG current change (%, negative = inhibition) at 1uM” value is 8.32%.
Regarding `O=c1c2ccccc2c(-c2ccccc2)nn1-c1cc(Cl)ccc1[N+](=O)[O-]`, the “hERG current change (%, negative = inhibition) at 1uM” value was 14.7%.
Turning to `Cc1ccccc1Nc1nc(N)nc(CN(C)Cc2ccccc2Cl)n1`, the “hERG current change (%, negative = inhibition) at 1uM” value is 8.65%.
On to `NC(=O)c1ccccc1NC(=O)Nc1cccc(Cl)c1`, for which the “hERG current change (%, negative = inhibition) at 1uM” value is given as -5.75%.
With `Fc1cccc(NC(=S)NCc2ccccn2)c1`, the “hERG current change (%, negative = inhibition) at 1uM” value is 2.61%.
The result for `COc1ccc(S(=O)(=O)N2CCOCC2)cc1NC(=O)c1ccc2c(c1)OCO2` reads 7.9%.
As to `O=C(Nc1ccc(C(F)(F)F)cc1)c1cccc(-n2cnnn2)c1`, the “hERG current change (%, negative = inhibition) at 1uM” value is 5.95%.
On to `COc1ccc(-c2cc(C(=O)NC3CCCC3)no2)cc1`, for which the “hERG current change (%, negative = inhibition) at 1uM” value stood at 10.2%.
`CCn1nc(C)cc1C(=O)N1CCCC(N2CCN(Cc3ccc4c(c3)OCO4)CC2)C1` (centres unmarked): the “hERG current change (%, negative = inhibition) at 1uM” value is 9.04%.
As to `CC(Oc1ccc(C(=O)c2ccc(F)cc2)cc1)C(=O)N1CCOCC1` (centres unmarked), the “hERG current change (%, negative = inhibition) at 1uM” value is listed as 9.67%.
With `COc1cc(CN2CCCCCC2)cc([N+](=O)[O-])c1O`, the “hERG current change (%, negative = inhibition) at 1uM” value stood at 11.2%.
Turning to `CCC1(C)Cc2c(sc3nc(NC)n(C)c(=O)c23)CO1.Cl` (centres unmarked), the “hERG current change (%, negative = inhibition) at 1uM” value stood at 6.38%.
As for `Cc1ccc(-n2nnnc2-c2cnoc2-c2cccc(F)c2)cc1`, the “hERG current change (%, negative = inhibition) at 1uM” value was 11.6%.
As for `COc1ccccc1C(=O)N1CC2(C)CC1CC(C)(C)C2` (centres unmarked), the “hERG current change (%, negative = inhibition) at 1uM” value amounted to 15%.
For the molecule `COc1cccc(N2CCN(C(=S)Nc3ccccc3)CC2)c1`, the “hERG current change (%, negative = inhibition) at 1uM” value stood at 17%.
On to `Cc1ccnc(NC(=O)Cc2c(F)cccc2Cl)c1`, for which the “hERG current change (%, negative = inhibition) at 1uM” value turned out to be 6.44%.
With `CC1(C)NC(=O)N(CC(=O)N2CCN(S(=O)(=O)c3ccccc3C(F)(F)F)CC2)C1=O`, the “hERG current change (%, negative = inhibition) at 1uM” value came to 13.7%.
As for `COC(=O)C1=C(C)N(CCCC(=O)O)C(=O)NC1c1cccc(OC)c1` (centres unmarked), the “hERG current change (%, negative = inhibition) at 1uM” value was determined as 10.9%.
With `CCOc1ccc(CCNC(=O)CCc2nc(-c3ccc(OC)cc3)no2)cc1OCC` the figure was 8.96%; with `O=C(C1CCCN1S(=O)(=O)c1cccc2nsnc12)N1CCCCCC1` (centres unmarked), 13.8%.

Source of the values: publication PMC4336329 (PLoS ONE, 2015).
